According to US20230183352A1:

Target: human Claudin 18.2 on HCC827-CLDN 18.2 cells (human), P56856
Test: cell-based or functional assay

Sequence of human Claudin 18.2 on HCC827-CLDN 18.2 cells (human), P56856 (P56856 whole entry): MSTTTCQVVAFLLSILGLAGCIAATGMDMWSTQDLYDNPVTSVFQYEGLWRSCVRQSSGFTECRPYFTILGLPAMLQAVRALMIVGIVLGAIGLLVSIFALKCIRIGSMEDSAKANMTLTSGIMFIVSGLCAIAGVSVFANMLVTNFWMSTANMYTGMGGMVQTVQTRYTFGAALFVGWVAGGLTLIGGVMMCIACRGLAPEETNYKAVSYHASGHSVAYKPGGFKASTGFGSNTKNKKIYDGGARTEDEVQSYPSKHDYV

Readings at 490 nm (LDH release, T + E + Ab) at 0 nM antibody (absorbance at 490 nm)	Readings at 490 nm (LDH release, T + E + Ab) at 0.000512 nM antibody (absorbance at 490 nm)	Readings at 490 nm (LDH release, T + E + Ab) at 0.00256 nM antibody (absorbance at 490 nm)	Readings at 490 nm (LDH release, T + E + Ab) at 0.0128 nM antibody (absorbance at 490 nm)	Readings at 490 nm (LDH release, T + E + Ab) at 0.064 nM antibody (absorbance at 490 nm)	Readings at 490 nm (LDH release, T + E + Ab) at 0.32 nM antibody (absorbance at 490 nm)	Readings at 490 nm (LDH release, T + E + Ab) at 1.6 nM antibody (absorbance at 490 nm)	Readings at 490 nm (LDH release, T + E + Ab) at 8 nM antibody (absorbance at 490 nm)	Readings at 490 nm (LDH release, T + E + Ab) at 40 nM antibody (absorbance at 490 nm)	Readings at 490 nm (LDH release, T + E + Ab) at 200 nM antibody (absorbance at 490 nm)	Binder	Killing percentage at 0 nM antibody (PBMC-mediated killing)	Killing percentage at 0.00051 nM antibody (PBMC-mediated killing)	Killing percentage at 0.00256 nM antibody (PBMC-mediated killing)	Killing percentage at 0.01280 nM antibody (PBMC-mediated killing)	Killing percentage at 0.06400 nM antibody (PBMC-mediated killing)	Killing percentage at 0.32000 nM antibody (PBMC-mediated killing)	Killing percentage at 1.60000 nM antibody (PBMC-mediated killing)	Killing percentage at 8.00 nM antibody (PBMC-mediated killing)	Killing percentage at 40.00 nM antibody (PBMC-mediated killing)	Killing percentage at 200.00 nM antibody (PBMC-mediated killing)	other results
0.393	0.414	0.477	0.414	0.501	0.632	0.747	0.743	0.707	0.697	QP3711461 (anti-CLDN18.2/anti-PD-L1 bispecific antibody) (bispecific antibody, human IgG1, kappa) heavy: QVQLVQSGAEVKKPGASVKVSCKASGYTFTSYIMHWVRQAPGQGLEWMGYINPYNDGTKYNEKFKGRVTMTRDTSTSTVYMELSSLRSEDTAVYYCARLGFTTRNAMDYWGQGTLVTVSS[here human IgG1 constant region without letters]GGGSGGGGSGGGGSGGGGSEVQLLESGGGLVQPGGSLRLSCAASGFTYGTYAMSWFRQAPGKGREGVACIDIYGRASYTDPVKGRFTISQDNSKNTLYLQMNSLKAEDTAVYYCAARDFGYCTASWVHEGFSRYWGQGTLVTVSS light: DIVMTQSPDSLAVSLGERATINCKSSQSLLNSGNQKNYLAWYQQKPGQPPKLLIYGASTRESGVPDRFTGSGSGTDFTLTISSLQAEDVAVYYCQNDHSYPFTFGQGTKLEIKRTVAAPSVFIFPPSDEQLKSGTASVVCLLNNFYPREAKVQWKVDNALQSGNSQESVTEQDSKDSTYSLSSTLTLSKADYEKHKVYACEVTHQGLSSPVTKSFNRGEC	0%	0.709%	6.2%	2.66%	11%	27.3%	41.5%	42.3%	38%	37.3%	Readings at 490 nm (LDH release, T + E + Ab, second row) at 0 nM antibody (absorbance at 490 nm): 0.401; Readings at 490 nm (LDH release, T + E + Ab, second row) at 0.000512 nM antibody (absorbance at 490 nm): 0.392; Readings at 490 nm (LDH release, T + E + Ab, second row) at 0.00256 nM antibody (absorbance at 490 nm): 0.422; Readings at 490 nm (LDH release, T + E + Ab, second row) at 0.0128 nM antibody (absorbance at 490 nm): 0.425; Readings at 490 nm (LDH release, T + E + Ab, second row) at 0.064 nM antibody (absorbance at 490 nm): 0.48; Readings at 490 nm (LDH release, T + E + Ab, second row) at 0.32 nM antibody (absorbance at 490 nm): 0.624; Readings at 490 nm (LDH release, T + E + Ab, second row) at 1.6 nM antibody (absorbance at 490 nm): 0.749; Readings at 490 nm (LDH release, T + E + Ab, second row) at 8 nM antibody (absorbance at 490 nm): 0.768; Readings at 490 nm (LDH release, T + E + Ab, second row) at 40 nM antibody (absorbance at 490 nm): 0.73; Readings at 490 nm (LDH release, T + E + Ab, second row) at 200 nM antibody (absorbance at 490 nm): 0.728
0.288	0.37	0.413	0.416	0.428	0.544	0.681	0.691	0.734	0.718	QP14611463 (anti-Claudin 18.2 monoclonal antibody, humanized from QP207208) (antibody, human IgG1, kappa) heavy: QVQLVQSGAEVKKPGASVKVSCKASGYTFTSYIMHWVRQAPGQGLEWMGYINPYNDGTKYNEKFKGRVTMTRDTSTSTVYMELSSLRSEDTAVYYCARLGFTTRNAMDYWGQGTLVTVSS[here human IgG1 constant region without letters] light: DIVMTQSPDSLAVSLGERATINCKSSQSLLNSGNQKNYLAWYQQKPGQPPKLLIYGASTRESGVPDRFTGSGSGTDFTLTISSLQAEDVAVYYCQNDHSYPFTFGQGTKLEIKRTVAAPSVFIFPPSDEQLKSGTASVVCLLNNFYPREAKVQWKVDNALQSGNSQESVTEQDSKDSTYSLSSTLTLSKADYEKHKVYACEVTHQGLSSPVTKSFNRGEC	-12.9%	-3.19%	1.89%	2.24%	3.66%	17.4%	33.5%	34.7%	39.8%	37.9%	
